The assay has as its target T1, oxMIF (recombinant human MIF immobilized into microwell plates, transforming MIF to oxMIF) (human, UniProt P14174 2-115).
T1 construct: also called immobilized MIF (oxMIF); immobilized oxMIF
The assay is described as follows: ELISA on immobilized MIF (oxMIF), protein L-HRP detection, mean of triplicate. The protocol: Recombinant human MIF (1 μg/ml) diluted in PBS was immobilized into microwell plates (transforming MIF to oxMIF according to Thiele M. et al., 2015, J Immunol 2015; 195:2343-2352). After blocking, the bispecific antibodies were added to the plates at different concentrations. Bound bispecific antibodies were detected using protein L-HRP conjugate. Plates were developed by adding 3 3′5 5′tetramethylbenzidine (TMB) and chromogenic reaction was stopped with […]. OD was measured at 450 nm.
The binding curves of anti-oxMIF/CD3 bispecific antibodies C0061 and C0062 binding towards immobilized MIF (oxMIF) in an ELISA are depicted in FIG. 4. The monospecific anti-oxMIF antibody C0008 was used as positive control for oxMIF binding. EC50 values of the binding curves, which reflect rough KD estimates, were calculated by 4-parameter fit.
(An ELISA detects its analyte on a solid surface through an enzyme-linked reagent.)

T1 sequence (P14174 2-115 limits assumed): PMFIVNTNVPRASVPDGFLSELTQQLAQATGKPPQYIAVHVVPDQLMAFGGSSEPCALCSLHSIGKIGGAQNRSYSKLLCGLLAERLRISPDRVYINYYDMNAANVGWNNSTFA

B1: C0062 (anti-oxMIF scFv and anti-CD3 scFv fused to Fc; scFv(oxMIF)-scFv(CD3)-Fc; (scFv)2-Fc) (bispecific antibody)
chain 1: DIQMTQSPSSLSASVGDRVTITCRSSQRIMTYLNWYQQKPGKAPKLLIFVASHSQSGVPSRFRGSGSETDFTLTISGLQPEDSATYYCQQSFWTPLTFGGGTKVEIKGGGGSGGGGSGGGGSEVQLLESGGGLVQPGGSLRLSCAASGFTFSIYSMNWVRQAPGKGLEWVSSIGSSGGTTYYADSVKGRFTISRDNSKNTLYLQMNSLRAEDTAVYYCAGSQWLYGMDVWGQGTTVTVSSGGGGS[human IgG1 Fc with changes cut from this listing]ASAWSHPQFEK
chain 2: QVQLVQSGAEVKKPGASVKVSCKASGYTFTRYTMHWVRQAPGQGLEWMGYINPSRGYTNYNQKFKDRVTLTTDKSSSTAYMELSSLRSEDTAVYYCARYYDDHYSLDYWGQGTLVTVSSGGSGGSGGSGGSGGSDIQMTQSPSSLSASVGDRVTITCSASSSVSYMNWYQQKPGKAPKRLIYDTSKLASGVPSRFSGSGSGTDFTLTISSLQPEDFATYYCQQWSSNPFTFGQGTKLEIKGGGGS[human IgG1 Fc with changes cut from this listing]AAAHHHHHH
notes: Monovalent for oxMIF and for CD3
As for B1, the EC50 (as a rule, the concentration at which the effect is half-maximal) stood at 24.7 nM.

Values taken from patent US20230045873A1 (ONCOONE RESEARCH AND DEVELOPMENT, published 2023).
